The supplement of paper PMC7826260
Some of the results follow. One pool of 16,384 single-stranded DNAs met each Rep nickase domain in vitro (1 h at 37 °C, 3 µM enzyme); the outer parts of the 90-letter strands are left off. Values are log2 of uncut reads against the no-enzyme pool; strong cutting gives strongly negative numbers. There is no active / inactive call. The scaling is to total reads; uncut strands gain when others are lost, and binding without cutting may add a little.

What was measured:
Assay in all cases: uncleaved DNA left, log2 of reads against the no-enzyme library (log2 ratio); higher = less cleavage (more negative = more Rep cleavage of the k-mer); sequences stand for … in CTCGTCCG…ACCGGAGA
[1] = system: T1, Rep nickase domain of Muscovy duck circovirus
T1 sequence (protein, residues 1-111, tag omitted): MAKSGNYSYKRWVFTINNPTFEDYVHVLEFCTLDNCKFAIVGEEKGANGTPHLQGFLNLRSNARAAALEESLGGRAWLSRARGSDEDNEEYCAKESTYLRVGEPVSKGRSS
Method: (§1)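 A pool of 90-nt single-stranded DNAs with seven random bases just before the constant AC of the nick site (name = the seven bases) was cut by 3 µM recombinant His6-SUMO-tagged Rep nickase domain (300 nM DNA, 50 mM HEPES pH 8.0, 50 mM NaCl, 1 mM MnCl2, 1 h, 37 °C, three replicates). Uncut DNA was amplified and sequenced.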

[2] = system: T2, Rep nickase domain of banana bunchy top virus
T2 sequence (protein, residues 1-94, tag omitted): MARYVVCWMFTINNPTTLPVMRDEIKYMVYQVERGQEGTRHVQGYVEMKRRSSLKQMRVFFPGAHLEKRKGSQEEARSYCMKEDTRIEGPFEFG
Method: as §1

[3] = system: T3, Rep nickase domain of cabbage leaf curl virus
T3 sequence (protein, residues 1-116, tag omitted): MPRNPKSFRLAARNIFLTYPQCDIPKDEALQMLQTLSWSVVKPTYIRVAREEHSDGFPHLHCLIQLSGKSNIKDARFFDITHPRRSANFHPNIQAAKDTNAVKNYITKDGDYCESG
Method: as §1

[4] = system: T4, Rep nickase domain of chickpea chlorotic dwarf virus
T4 sequence (protein, residues 1-124, tag omitted): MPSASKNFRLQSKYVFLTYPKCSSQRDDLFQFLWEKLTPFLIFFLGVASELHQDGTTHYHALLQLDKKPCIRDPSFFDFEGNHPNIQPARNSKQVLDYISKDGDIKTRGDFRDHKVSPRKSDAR
Method: as §1

[5] = system: T5, Rep nickase domain of faba bean necrotic yellows virus
T5 sequence (protein, residues 1-98, tag omitted): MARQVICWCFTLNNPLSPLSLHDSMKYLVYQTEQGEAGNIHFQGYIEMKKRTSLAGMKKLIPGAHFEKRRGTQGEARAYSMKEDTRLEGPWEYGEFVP
Method: as §1

[6] = system: T6, Rep nickase domain of maize striate mosaic virus
T6 sequence (protein, residues 1-117, tag omitted): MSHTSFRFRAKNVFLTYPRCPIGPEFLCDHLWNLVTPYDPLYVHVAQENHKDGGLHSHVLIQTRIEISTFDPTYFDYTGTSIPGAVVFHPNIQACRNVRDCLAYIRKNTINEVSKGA
Method: as §1

[7] = system: T7, Rep nickase domain of porcine circovirus 2
T7 sequence (protein, residues 2-116, tag omitted): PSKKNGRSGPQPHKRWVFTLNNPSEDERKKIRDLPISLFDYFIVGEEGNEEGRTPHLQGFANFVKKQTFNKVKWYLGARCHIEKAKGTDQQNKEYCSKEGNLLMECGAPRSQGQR
Method: as §1

[8] = system: T8, Rep nickase domain of tomato golden mosaic virus
T8 sequence (protein, residues 1-124, tag omitted): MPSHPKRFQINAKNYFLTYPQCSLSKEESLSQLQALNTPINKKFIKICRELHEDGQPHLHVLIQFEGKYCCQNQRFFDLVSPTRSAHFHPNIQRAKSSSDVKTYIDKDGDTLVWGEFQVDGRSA
Method: as §1

[9] = system: T9, Rep nickase domain of tomato yellow leaf curl virus
T9 sequence (protein, residues 1-136, tag omitted): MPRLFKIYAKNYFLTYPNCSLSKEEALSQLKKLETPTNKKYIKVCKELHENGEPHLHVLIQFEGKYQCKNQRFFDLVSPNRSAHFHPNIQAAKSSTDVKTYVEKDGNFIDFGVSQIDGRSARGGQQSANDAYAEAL
Method: as §1

[10] = system: T10, Rep nickase domain of wheat dwarf virus
T10 sequence (protein, residues 1-137, tag omitted): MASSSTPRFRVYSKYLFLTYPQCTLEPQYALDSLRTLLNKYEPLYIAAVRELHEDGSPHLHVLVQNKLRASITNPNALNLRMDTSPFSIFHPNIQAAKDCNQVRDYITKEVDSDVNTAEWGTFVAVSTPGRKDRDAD
Method: as §1

Sequence	uncleaved DNA left (log2) [1]	uncleaved DNA left (log2) [2]	uncleaved DNA left (log2) [3]	uncleaved DNA left (log2) [4]	uncleaved DNA left (log2) [5]	uncleaved DNA left (log2) [6]	uncleaved DNA left (log2) [7]	uncleaved DNA left (log2) [8]	uncleaved DNA left (log2) [9]	uncleaved DNA left (log2) [10]
TCGTGAG	0.0812	-0.0437	-0.47	-0.713	0.024	-1.04	0.0775	0.101	0.08	-0.0648
TTTAGTG	0.168	-0.0327	-0.432	-0.654	0.0792	-1.05	0.191	0.0671	0.00339	-0.0222
GAGAGAC	0.00879	0.0373	0.477	1.43	-0.000722	1.84	0.189	0.0879	0.0532	0.143
GAGAAAG	0.227	0.0861	-0.235	0.0596	0.00394	-0.588	0.234	0.16	0.118	0.103
TCGGCCA	-0.112	-0.0714	0.007	-0.438	-0.0984	-0.38	-0.255	-0.0534	-0.0212	-0.0764
ACATTTA	0.000434	-0.093	-0.256	-1.66	-0.0159	-0.704	-0.0305	0.0602	-0.226	-0.075
GATGGGA	0.0118	0.0861	0.298	0.78	0.0565	0.785	0.102	0.046	0.0557	0.0253
AGCTTTG	-0.0415	0.00283	-0.0523	0.604	-0.00172	0.961	0.107	-0.122	0.0137	0.0267
GTTCTTC	-0.0733	-0.000448	0.29	0.701	-0.00763	1.54	-0.0293	-0.0184	-0.0575	-0.0091
TTAAGTC	0.0255	-0.0701	-3.32	-3.1	-0.025	-2.04	0.0295	-1.15	-0.0225	-2.23
ACGGCGG	-0.214	-0.177	-0.64	-0.385	-0.147	-0.83	-0.0264	-0.024	-0.139	-0.221
CTTCGTT	-0.173	-0.284	-0.373	-2.3	-0.0709	-1.01	-0.727	-0.163	-0.156	-0.19
GAATCAG	0.0202	-0.00735	-0.521	-0.444	0.11	-1.04	0.151	0.0365	0.0196	-0.0702
TCTACAT	0.0868	0.115	0.323	-0.94	0.0649	0.564	-0.0617	-0.0701	0.116	0.0783
ATTTTAA	0.0705	0.0584	-0.068	-0.393	0.147	-0.562	0.066	0.0624	0.0929	0.0583
TGGGTCG	0.0444	-0.00474	-0.428	0.355	0.103	-0.422	0.218	0.0259	0.0898	-0.0103
TGAGAAT	0.0236	0.0761	0.112	0.973	-0.112	1.49	0.00968	-0.00123	-0.0826	0.165
TTGGTGC	-0.0508	-0.0671	-0.512	-0.681	-0.0217	-1.05	-0.0294	-0.206	0.05	-0.166
CCCTCGC	-0.0443	-0.0379	-0.367	-0.749	-0.0725	-0.936	0.0178	0.0223	-0.138	-0.168
ACCATTC	0.0156	-0.0592	-0.379	-0.274	0.0281	-0.976	0.0683	-0.15	-0.0665	-0.0958

Sequence	uncleaved DNA left (log2) [1]	uncleaved DNA left (log2) [2]	uncleaved DNA left (log2) [3]	uncleaved DNA left (log2) [4]	uncleaved DNA left (log2) [5]	uncleaved DNA left (log2) [6]	uncleaved DNA left (log2) [7]	uncleaved DNA left (log2) [8]	uncleaved DNA left (log2) [9]	uncleaved DNA left (log2) [10]
ATAGGAG	0.0609	-0.00869	0.0565	1.1	-0.032	0.518	0.163	0.172	-0.00751	0.0859
TTGGATA	0.0191	0.101	0.191	0.705	0.00673	1.22	0.083	0.0844	-0.0514	-0.00111
TTCAATA	-0.0513	0.0628	0.0819	-0.827	-0.0986	0.188	-0.112	-0.0462	0.089	0.0442
GTCGTGT	-0.00957	-0.133	0.227	0.543	-0.0781	1.39	-0.00646	0.000296	-0.0551	-0.0959
CAATCAT	-0.45	-0.0396	-3.43	-2.92	-0.0564	-1.68	-3.18	-2.78	-0.0312	-2.35
GTTAAAT	0.147	0.171	0.434	0.992	0.089	1.73	0.114	0.15	0.183	0.21
CTGCTAA	-0.0039	-0.0279	-0.318	-0.504	-0.0905	-0.905	-0.0324	-0.0284	-0.0734	-0.0655
AACAAAC	-0.0271	0.0135	-0.16	-0.622	0.0357	-0.879	0.00881	-0.0333	-0.0502	-0.038
GGGGCGA	-0.0462	0.0237	0.79	1.81	0.00482	2.16	0.215	0.102	-0.0275	0.0532
TGAGGTG	0.00671	-0.0909	-0.244	-0.205	-0.139	-0.446	0.087	-0.0368	-0.195	-0.168
TACTCAG	0.0512	0.0198	-0.823	-0.899	-0.0234	-1.25	-0.097	-0.000987	-0.0358	-0.099
GGTCCAT	0.0899	0.0668	0.819	2.04	0.00348	2.23	0.181	0.0397	0.0181	0.197
GTCCTAG	0.0999	0.0794	0.351	0.683	0.0107	1.38	0.0648	0.138	0.0256	0.0885
AACTATG	-0.0233	0.0285	-0.395	-0.369	0.155	-0.847	0.0115	-0.00361	0.0338	0.119
GGTTCAC	0.0768	0.0878	0.369	1.06	0.119	1.69	0.101	0.0395	0.177	0.162
GACCCTG	0.0346	0.0181	0.385	1.17	0.0703	1.3	0.069	0.114	-0.0349	0.0817
TTGCATC	0.0406	-0.104	-0.472	-0.756	-0.0601	-1.02	-0.053	-0.0578	0.00365	-0.0213
GATAGAG	-0.0306	-0.0793	-0.274	-0.117	0.0486	-0.932	0.102	0.00783	-0.0104	-0.0359
GTACGTG	0.057	-0.104	-0.125	-0.0546	-0.0459	-0.298	0.0128	0.0411	0.00838	-0.0966
CTCGCAT	0.061	0.00474	-0.174	-0.499	0.0465	-0.583	-0.187	-0.0363	0.064	-0.0192

Sequence	uncleaved DNA left (log2) [1]	uncleaved DNA left (log2) [2]	uncleaved DNA left (log2) [3]	uncleaved DNA left (log2) [4]	uncleaved DNA left (log2) [5]	uncleaved DNA left (log2) [6]	uncleaved DNA left (log2) [7]	uncleaved DNA left (log2) [8]	uncleaved DNA left (log2) [9]	uncleaved DNA left (log2) [10]
TGGTGCG	0.0755	-0.0635	-0.226	1.03	0.145	0.626	0.0733	0.0359	-0.136	-0.0593
AGTCACC	0.0161	-0.128	0.157	0.24	-0.148	0.0901	-0.31	-0.0836	-0.0948	-0.0824
TTTTAGC	-0.0665	-0.0601	-0.431	-0.62	-0.0868	-1.17	0.0826	-0.192	-0.151	-0.104
GAACAGC	-0.0396	0.0859	0.648	1.51	0.0704	1.53	0.189	-0.041	-0.0432	0.0831
GGAAAGA	-0.0185	0.0983	0.775	1.74	-0.0699	1.92	0.261	0.031	0.0423	0.136
CGTGTTT	0.195	0.212	0.274	-0.866	0.222	0.186	-0.34	0.244	0.266	0.148
CCACCCA	-0.204	-0.0369	-0.0919	-1.18	-0.0992	-0.64	-0.73	-0.102	-0.0403	-0.111
TACGTGC	0.0155	0.0247	-0.361	-0.778	0.0584	-1.03	0.125	-0.0456	0.0844	-0.0335
CATGTAC	0.0454	-0.0146	-0.134	-0.546	0.137	-0.814	0.127	0.0992	0.117	0.0507
TAGACAG	0.00865	0.0115	0.0631	0.485	0.121	0.464	0.183	-0.0585	0.0289	0.108
GTCCAAT	0.0299	0.214	0.354	1.04	0.146	1.63	0.123	0.206	0.199	0.273
AGGCTCG	-0.0362	-0.063	-0.475	-0.625	-0.0606	-0.846	0.0922	0.0541	-0.0372	0.0113
CTTACTC	-0.084	-0.0105	-0.0992	-2.32	-0.124	-0.662	0.0765	-0.151	0.0088	-0.0275
GATCTCC	-0.0101	0.0758	0.00738	0.0489	0.0443	1.28	0.137	0.0208	0.0632	0.0753
TAAGCCT	-0.192	-0.0686	-3.18	-3.11	-0.0768	-1.38	-0.45	-1.05	-0.0487	-2.09
ACTATGT	-0.00469	0.0955	-0.141	-0.472	0.123	-0.727	-1.89	0.122	0.0338	-0.0119
TACTCTT	-3.8	-3.56	-3.16	-3.4	-0.662	-1.21	-3.7	-1.21	-0.258	-1.29
CCGCCCG	-0.111	-0.0417	-0.8	-0.149	-0.0606	-0.809	-0.0445	0.0702	-0.225	-0.223
TAATGGC	0.0783	-0.00976	-2.65	-2.61	-0.029	-1.46	-0.0619	-0.192	0.0548	-0.219
AAAACCT	-0.182	-0.0736	-1.94	-2.8	-0.0416	-0.736	-1.6	-0.223	-0.0689	-0.506
